Experimental findings from publication PMC4450067 (PLoS Pathogens, 2015) are described below.

Test [1] deals with G3BP-1. The experiment in a line: Immunofluorescence colocalization with G3BP-1 in SFV-infected cells. Conditions: SFV-infected MEFs, MOI 5, 8 hpi.
Test [2] concerns stress granules in MEF cells. The experiment in a line: Stress granule formation in SFV-infected MEFs with or without Pat A. The format is cell-based. Conditions: mock-infected MEFs; Pat A 100 nM for 1 h; fifty cells per treatment.
Test [3] has as its system G3BP-1. The test can be described thus: Co-immunoprecipitation of EGFP fusion proteins with G3BP-1 from BHK cell lysates. The format is binding. Conditions: anti-GFP IP, BHK cells, 16 h after transfection.
In a further test the test system is G3BP-2. The experiment in a line: Co-immunoprecipitation of EGFP fusion proteins with G3BP-2 from BHK cell lysates. It counts as binding. Conditions: anti-GFP IP, BHK cells, 16 h after transfection.
[4] abbreviates: USP10_1–40 series, alanine mutants of EGFP-USP10_1–40.

In the case of “USP10: ubiquitin-specific protease 10, cellular binding partner of G3BP”, the “overlap of USP10 with G3BP in SFV-infected cells” value with G3BP-1 [1] was “did not detect any significant overlap with G3BP”.

Regarding `CC(/C=C/C(C)=C/[C@@H]1Cc2nc(cs2)[C@@H](C)C[C@@H](N)CC(=O)O[C@@H](C)C/C(C)=C/C=C\C(=O)O1)=C\CN(C)C` [Pat A, pateamine A], the “cells with SGs” value in test [2] was “Approximately 100%”.

For the molecule EGFP-USP10_1–40, the “G3BP-1 detected in complex” value in the test on G3BP-1 [3] (Fig. 4B) is “detected in complex”. Further, in the test with G3BP-1 [3] (setting [4]), the “binding to G3BP-1” value was “efficiently coprecipitated”. Further, in the test on G3BP-2 (Fig. 4B), the “G3BP-2 detected in complex” value is on record as “detected in complex”. Moreover, the “binding to G3BP-2” value with G3BP-2 (setting [4]) is recorded as “efficiently coprecipitated”.
